Assay results published in paper PMC9911399, “Two distinct binding modes provide the RNA-binding protein RbFox with extraordinary sequence specificity”.
Changes are numbered by the printed parent chain; changes in the protein carry UniProt numbers. The list shows a part of the results.

T1: RBFOX1 RRM (Homo sapiens, UniProt Q9NWB1 109-208)
T1 sequence: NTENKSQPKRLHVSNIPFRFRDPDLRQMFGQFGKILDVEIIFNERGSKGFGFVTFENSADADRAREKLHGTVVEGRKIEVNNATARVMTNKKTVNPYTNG

B1: GUACUUU (DNA:RNA)
RNA: GGGAGACCGGAAUUCAGAUUGUCCGUACUUUUUAAAUCCCGUCGUAGCCACCA
DNA 1: CAATCTGAATTCCGGTCTCCC
DNA 2: TGGTGGCTACGACGGGATT
B2: CAUGAGC (DNA:RNA)
RNA: GGGAGACCGGAAUUCAGAUUGUCCCAUGAGCUUAAAUCCCGUCGUAGCCACCA
DNA 1: CAATCTGAATTCCGGTCTCCC
DNA 2: TGGTGGCTACGACGGGATT
B3: CGUCCCG (DNA:RNA)
RNA: B2 RNA with A26G, G28C, A29C, G30C, C31G
DNA 1: CAATCTGAATTCCGGTCTCCC
DNA 2: TGGTGGCTACGACGGGATT
B4: UCUCGAU (DNA:RNA)
RNA: B1 RNA with G25U, U26C, A27U, U29G, U30A
DNA 1: CAATCTGAATTCCGGTCTCCC
DNA 2: TGGTGGCTACGACGGGATT
B5: UUCGCUU (DNA:RNA)
RNA: B1 RNA with G25U, A27C, C28G, U29C
DNA 1: CAATCTGAATTCCGGTCTCCC
DNA 2: TGGTGGCTACGACGGGATT
B6: AGGGGAA (DNA:RNA)
RNA: B2 RNA with C25A, A26G, U27G, A29G, G30A, C31A
DNA 1: CAATCTGAATTCCGGTCTCCC
DNA 2: TGGTGGCTACGACGGGATT
B7: UGUCAGC (DNA:RNA)
RNA: B2 RNA with C25U, A26G, G28C
DNA 1: CAATCTGAATTCCGGTCTCCC
DNA 2: TGGTGGCTACGACGGGATT
B8: AGGCGCC (DNA:RNA)
RNA: B2 RNA with C25A, A26G, U27G, G28C, A29G, G30C
DNA 1: CAATCTGAATTCCGGTCTCCC
DNA 2: TGGTGGCTACGACGGGATT
B9: ACACCAU (DNA:RNA)
RNA: B1 RNA with G25A, U26C, U29C, U30A
DNA 1: CAATCTGAATTCCGGTCTCCC
DNA 2: TGGTGGCTACGACGGGATT
B10: CGUCCAG (DNA:RNA)
RNA: B2 RNA with A26G, G28C, A29C, G30A, C31G
DNA 1: CAATCTGAATTCCGGTCTCCC
DNA 2: TGGTGGCTACGACGGGATT
B11: CGGGACC (DNA:RNA)
RNA: B2 RNA with A26G, U27G, G30C
DNA 1: CAATCTGAATTCCGGTCTCCC
DNA 2: TGGTGGCTACGACGGGATT
B12: UAUCUGA (DNA:RNA)
RNA: B2 RNA with C25U, G28C, A29U, C31A
DNA 1: CAATCTGAATTCCGGTCTCCC
DNA 2: TGGTGGCTACGACGGGATT
B13: CCAACUU (DNA:RNA)
RNA: B1 RNA with G25C, U26C, C28A, U29C
DNA 1: CAATCTGAATTCCGGTCTCCC
DNA 2: TGGTGGCTACGACGGGATT
B14: ACCUUUU (DNA:RNA)
RNA: B1 RNA with G25A, U26C, A27C, C28U
DNA 1: CAATCTGAATTCCGGTCTCCC
DNA 2: TGGTGGCTACGACGGGATT
B15: AAGGUCA (DNA:RNA)
RNA: B2 RNA with C25A, U27G, A29U, G30C, C31A
DNA 1: CAATCTGAATTCCGGTCTCCC
DNA 2: TGGTGGCTACGACGGGATT
B16: UCCGAAC (DNA:RNA)
RNA: B2 RNA with C25U, A26C, U27C, G30A
DNA 1: CAATCTGAATTCCGGTCTCCC
DNA 2: TGGTGGCTACGACGGGATT
B17: UAUGUUC (DNA:RNA)
RNA: B2 RNA with C25U, A29U, G30U
DNA 1: CAATCTGAATTCCGGTCTCCC
DNA 2: TGGTGGCTACGACGGGATT
B18: CCGGUAG (DNA:RNA)
RNA: B2 RNA with A26C, U27G, A29U, G30A, C31G
DNA 1: CAATCTGAATTCCGGTCTCCC
DNA 2: TGGTGGCTACGACGGGATT
B19: GAUCAAC (DNA:RNA)
RNA: B2 RNA with C25G, G28C, G30A
DNA 1: CAATCTGAATTCCGGTCTCCC
DNA 2: TGGTGGCTACGACGGGATT
B20: CAUAACG (DNA:RNA)
RNA: B2 RNA with G28A, G30C, C31G
DNA 1: CAATCTGAATTCCGGTCTCCC
DNA 2: TGGTGGCTACGACGGGATT
B21: GAGCACA (DNA:RNA)
RNA: B2 RNA with C25G, U27G, G28C, G30C, C31A
DNA 1: CAATCTGAATTCCGGTCTCCC
DNA 2: TGGTGGCTACGACGGGATT
B22: CUUUCAA (DNA:RNA)
RNA: B2 RNA with A26U, G28U, A29C, G30A, C31A
DNA 1: CAATCTGAATTCCGGTCTCCC
DNA 2: TGGTGGCTACGACGGGATT
B23: UGAAACU (DNA:RNA)
RNA: B1 RNA with G25U, U26G, C28A, U29A, U30C
DNA 1: CAATCTGAATTCCGGTCTCCC
DNA 2: TGGTGGCTACGACGGGATT
B24: GUGCUCG (DNA:RNA)
RNA: B1 RNA with A27G, U30C, U31G
DNA 1: CAATCTGAATTCCGGTCTCCC
DNA 2: TGGTGGCTACGACGGGATT
B25: GUUUGCA (DNA:RNA)
RNA: B1 RNA with A27U, C28U, U29G, U30C, U31A
DNA 1: CAATCTGAATTCCGGTCTCCC
DNA 2: TGGTGGCTACGACGGGATT
B26: AGACGCU (DNA:RNA)
RNA: B1 RNA with G25A, U26G, U29G, U30C
DNA 1: CAATCTGAATTCCGGTCTCCC
DNA 2: TGGTGGCTACGACGGGATT
B27: CCGUUAU (DNA:RNA)
RNA: B1 RNA with G25C, U26C, A27G, C28U, U30A
DNA 1: CAATCTGAATTCCGGTCTCCC
DNA 2: TGGTGGCTACGACGGGATT
B28: GUUCUCU (DNA:RNA)
RNA: B1 RNA with A27U, U30C
DNA 1: CAATCTGAATTCCGGTCTCCC
DNA 2: TGGTGGCTACGACGGGATT
B29: UCUUCCC (DNA:RNA)
RNA: B2 RNA with C25U, A26C, G28U, A29C, G30C
DNA 1: CAATCTGAATTCCGGTCTCCC
DNA 2: TGGTGGCTACGACGGGATT
B30: UUAUUGG (DNA:RNA)
RNA: B1 RNA with G25U, C28U, U30G, U31G
DNA 1: CAATCTGAATTCCGGTCTCCC
DNA 2: TGGTGGCTACGACGGGATT
B31: AUUUUGA (DNA:RNA)
RNA: B2 RNA with C25A, A26U, G28U, A29U, C31A
DNA 1: CAATCTGAATTCCGGTCTCCC
DNA 2: TGGTGGCTACGACGGGATT

What follows are binders tested against T1, RBFOX1 RRM (assay: EMSA; HiTS-Eq, 1 nM pool, 10 min; buffer printed only for the single-RNA assays: 10 mM Tris pH 7.5, 150 mM NaCl, 3.4 mM EDTA, 0.001% NP-40, 30 C). Conditions: tags: His6 N-terminal (pET28a); label: 5' 32P.
Outline: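 Relative association constants, normalised to the cognate motif, were derived by comparing read counts of each RNA species with those of the control reaction. The RNA sequenced was the free fraction, separated by 8% native PAGE after a 10 min equilibration in 50 µL of 1 nM 5′-radiolabelled RNA (7 randomized nucleotides) with increasing concentrations of purified wild-type or mutant RbFox RRM.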

Row | Binder | binding signal
1 | B1 | 0.00869 KA relative to UGCAUGU
2 | B2 | 0.00651 KA relative to UGCAUGU
3 | B3 | 0.00671 KA relative to UGCAUGU
4 | B4 | 0.00854 KA relative to UGCAUGU
5 | B5 | 0.0144 KA relative to UGCAUGU
6 | B6 | 0.0151 KA relative to UGCAUGU
7 | B7 | 0.0124 KA relative to UGCAUGU
8 | B8 | 0.00888 KA relative to UGCAUGU
9 | B9 | 0.00112 KA relative to UGCAUGU
10 | B10 | 0.00503 KA relative to UGCAUGU
11 | B11 | 0.0165 KA relative to UGCAUGU
12 | B12 | 0.0166 KA relative to UGCAUGU
13 | B13 | 0.000894 KA relative to UGCAUGU
14 | B14 | 0.00337 KA relative to UGCAUGU
15 | B15 | 0.00771 KA relative to UGCAUGU
16 | B16 | 0.00827 KA relative to UGCAUGU

Row | Binder | binding signal
17 | B17 | 0.0147 KA relative to UGCAUGU
18 | B18 | 0.0144 KA relative to UGCAUGU
19 | B19 | 0.00262 KA relative to UGCAUGU
20 | B20 | 0.00316 KA relative to UGCAUGU
21 | B21 | 0.0116 KA relative to UGCAUGU
22 | B22 | 0.00675 KA relative to UGCAUGU
23 | B23 | 0.0109 KA relative to UGCAUGU
24 | B24 | 0.0432 KA relative to UGCAUGU
25 | B25 | 0.0261 KA relative to UGCAUGU
26 | B26 | 0.00766 KA relative to UGCAUGU
27 | B27 | 0.00696 KA relative to UGCAUGU
28 | B28 | 0.0178 KA relative to UGCAUGU
29 | B29 | 0.0053 KA relative to UGCAUGU
30 | B30 | 0.0112 KA relative to UGCAUGU
31 | B31 | 0.0123 KA relative to UGCAUGU
